# Test results published in ChEMBL document CHEMBL4888484, “Replenishing the malaria drug discovery pipeline: Screening and hit evaluation of the MMV Hit Generation Library 1 (HGL1) against asexual blood stage Plasmodium falciparum ,using a nano luciferase reporter read-out” (2022).
# Out of some 150,000 compounds screened, about 540 (0.36%) showed an effect of 50% or more. Some of the results follow.
# System: Plasmodium falciparum
# Experiment: Primary screen in NF54 nanoGlo assay, in single point, at 2uM, 72h; a lower Z score goes with more inhibition
# Type: functional, Erythrocyte
# Settings: timepoint 72 hour
Compound,% Inhibition,Z score
COCCOc1ccccc1C(=O)N1CCN(C(=O)OC(C)(C)C)CC12CCCCC2,-7%,1.54
O=C(Nc1cccc2cccnc12)C(c1ccccc1)c1ccccc1,-9%,1.44
Cn1cc(Cl)cc1C(=O)N[C@@H](CCO)C1CCOCC1,-5%,0.77
O=C(Nc1cccnc1)N1CC[C@H](OCCCc2ccccc2)C1,-1%,0.14
COc1cccc(CC(=O)N2CC[C@H](Cc3ncc(C)n3C(C)C)C2)c1,-2%,0.22
Cc1cncnc1C1CCN(C(=O)c2ccc(-n3cnnn3)cc2O)CC1,-14%,1.39
Cc1ccc2cnn(C(=O)Nc3ccc4c(c3)OCO4)c2c1,-8%,1.56
COc1ccc(C2CC(c3cccc(Br)c3)N(Cc3ccc(F)cc3)c3nnnn32)cc1 (configuration not stated),0%,0.03
CC(C)(C)OC(=O)NCC=CCNS(=O)(=O)c1ccc(Cl)cc1,3%,-0.57
COc1ncc(C(=O)NCCN2CC[C@H](c3ccccc3C)C2)cn1,-12%,2.16
CN(CCCN1CCOCC1)C1CCN(c2ccc(C(=O)O)cc2NC(=O)c2ccccc2)CC1,-14%,2.13
O=C1CCC[C@H]2[C@@H]3C[C@H](CN(Cc4cccc5nonc45)C3)CN12,-15%,2.36
COCc1noc(-c2nn(C)c3c2CN(S(=O)(=O)Cc2ccccc2)C3)n1,-11%,1.76
O=C(c1ccnn1C1CCC1)N1CC[C@H](c2ccccn2)C1,-6%,0.99
CCOC(=O)C(NC(C)=O)C(O)c1cccc(N)c1 (configuration not stated),-6%,0.77
Cc1cscc1C(=O)N(C)Cc1cnn(C)c1C,-1%,0.15
COc1c(C(=O)Nc2ccccc2)oc2ccc(NC(=O)c3cc(Cl)ccc3F)cc12,-22%,2.53
CC(C)OC(C)(C)c1nc(Cn2cnc3ccccc32)no1,6%,-0.78
CN(C)C(=O)CN1CC[C@H](NC(=O)c2ccccc2N2CCCC2)[C@@H](O)C1,-2%,0.22
COC(=O)[C@H]1CC(=O)N(C2CCN(C(=O)OC(C)(C)C)CC2)C1,-13%,2.47
Cc1ccc2[nH]c(N3CCN(S(=O)(=O)c4cccs4)CC3)nc2c1,0%,0.04

Compound,% Inhibition,Z score
CCN1CCC(CC(=O)N2C[C@H]3CC(C)=CC[C@H]3C2)CC1,-9%,0.93
CCC(C)(C)C(=O)N1C[C@H](c2nc(-c3ccccc3)no2)[C@@H](C)C1,-14%,1.66
CCOc1nccn2c(CNC(=O)c3ccc4c(c3)OCO4)nnc12,-14%,2.03
Cc1cccc(NC2CCN(C(=O)c3cc(O)cs3)CC2)n1,1%,-0.1
N=C1C(c2nc(-c3ccc(Cl)cc3)cs2)=C(O)CN1C1CCN(Cc2ccccc2)CC1,1%,-0.15
Cc1nc(N2CCc3[nH]cnc3C2)cc([C@H]2C[C@@H](O)C2)n1,-6%,1.18
CC[C@H]1CCCCN1C(=O)c1ccc2c(c1)NC(=O)CO2,-15%,2
O=C(NCC1CCN(c2nc(-c3ccccc3)no2)CC1)c1ccco1,-6%,0.72
Cc1cc(OCCNCCO)cc(C)c1Cl,4%,-0.57
Brc1cncc2ncccc12,-7%,1.27
CC(NCCOCC(F)(F)F)C(C)n1cccn1 (configuration not stated),-8%,1.41
O=C(NCc1ccccc1Cl)c1ccc2c(cnn2CC(=O)N2CCCCCC2)c1,-17%,2.28
COc1ccc(-n2nc(C)c3sc(N(C)CC(=O)N4CCCCC4)nc32)cc1,4%,-0.52
CCN(CC)C(=O)N1CCC(C(=O)N[C@@H](C(=O)OC(C)(C)C)c2ccccc2)CC1,-5%,0.58
CC1(C)CN(CCOCc2ccccc2)CC[C@]1(C)O,-3%,0.67
CC(C)(NC(=O)CC1(O)CCCCC1)C(=O)Nc1ccccc1,32%,-4.69
COc1ccc(-c2cc3n(n2)CCC(=O)N3Cc2ccc(C(=O)Nc3ccc(F)cc3F)cc2)cc1,16%,-1.85
CC(C)CN1CCN(C(=O)c2ccn(CC(F)F)n2)CC1=O,-14%,2.18
O=C(NCCc1ccccc1)c1n[nH]c2c1CN(C(=O)Cc1cccc(Cl)c1)CC2,-8%,1.33
CCc1ccc(CN(C)CCN(C2CCOCC2)[C@H]2CCCN(S(C)(=O)=O)C2)cc1,-1%,0.13
